Results from PubChem BioAssay AID686979 (National Center for Advancing Translational Sciences (NCATS), 2013).
Among all 420,000 compounds or so, about 50,000 (12%) were called active. The shares of active, inactive and inconclusive entries below differ from those in the screen. The call rests on the fitted dose curve; in most records, active means well fitted inhibition curve with a large enough effect; inconclusive means small, poorly fitted or top-dose-only effect; inactive means flat fitted curve, though single readings scatter. Potencies of inconclusive entries are left out as doubtful fits.

Assay: qHTS for Inhibitors of human tyrosyl-DNA phosphodiesterase 1 (TDP1): qHTS in cells in presence of CPT; further: nearly all actives have a fitted effect of over 55% in size
Settings: chicken DT40 Tdp1-/-;hTDP1 cells + 20 nM CPT, ATP luminescence, 48 h; activity change, negative = growth inhibition: at 46.2 µM (top of the series) unless noted
Outline: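 Cell growth measured by CellTiter-Glo luminescence after a minimum 48 h, 37 C compound exposure with 20 nM CPT in Tdp1-knockout DT40 cells stably expressing hTDP1, seeded 400/well; qHTS titration format.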
On the % scale 0 is the no-effect control and ±100 the full control effect; potency means the concentration at half of the fitted maximal effect; tags describe the fitted curve by direction and shape.

| Compound | activity change, negative = growth inhibition | Potency |
| --- | --- | --- |
| COC(=O)c1sc(N)nc1CCNC(=O)OC(C)(C)C | inactive: 8.95% |  |
| O=C(Nc1ccncc1)C1CC1c1ccccc1 (stereo not given) |  | active: 15.8 µM |
| COc1cc(C(=O)Nc2ccc3oc(-c4ccc(C)c(Br)c4)nc3c2)cc(OC)c1OC |  | active: 20.6 µM |
| COc1cc(OC)cc(N2C(=O)CSCC2=O)c1 | inactive: 1.78% |  |
| Cn1c(CCN2CCOCC2)nc2cc(NS(=O)(=O)c3ccccc3)ccc21 | inactive: -11.6% |  |
| Cn1c(=O)[nH]c(Nc2ccccc2)c([N+](=O)[O-])c1=O | inactive: 21.4% |  |
| CC(C)N1CCC(C)(C(=O)Nc2ccc(-n3cccc3)cc2)C1 (stereo not given) |  | inconclusive [inhibitor, partial curve] |
| COc1cc(C(=S)N2CCOCC2)ccc1OC(=O)c1cccc(C)c1 |  | inconclusive [inhibitor, single point] |
| CCN(CCO)C(=O)c1cnn(-c2ncc3c(n2)-c2ccccc2CCC3)c1C1CC1 |  | inconclusive [inhibitor, single point] |
| CCCCNCC(O)(c1ccc(Cl)cc1)c1ccc(Cl)cc1 |  | active: 14.6 µM |
| Cc1ccc(S(=O)(=O)NC(CC(C)C)C(=O)N2CCCC2)cc1 (stereo not given) |  | inconclusive [inhibitor, single point] |
| O=S(=O)(c1ccc2ccccc2c1)N1CCN(C2CCN(Cc3ccccc3)CC2)CC1 |  | inconclusive [inhibitor, single point] |
| CCCN(CCC)c1nc2ccccc2n2c(C)nnc12 |  | inconclusive [inhibitor, partial curve, poor fit] |
| CC(=NNc1ccc([N+](=O)[O-])cn1)c1ccccc1 | inactive: -7.26% |  |
| Cc1ccc(C)c(NC(=O)c2cc(-c3cc(C)cc(C)c3O)n[nH]2)c1 |  | inconclusive [inhibitor, single point] |
| O=S1(=O)C[C@H](N2CCC[C@@H]2CO)[C@@H](COCc2ccccc2)N1 | inactive: 0.259% |  |
| O=C1CCN(Cc2nc(-c3ccc(Cl)cc3)no2)CCN1 | inconclusive: -36.4% [inhibitor] |  |
| CN1CCN(C(=O)Nc2cccc(-c3ccccc3)c2)CC1 | inactive: -7.49% |  |
| COc1ccc(F)cc1S(=O)(=O)NCCc1sc2nc(-c3ccc(F)cc3)nn2c1C |  | inconclusive [inhibitor, single point] |
| COc1cc(OC)c2c(-c3ccccc3)cc(=O)oc2c1C(CCN1CCOCC1)c1ccc(N(C)C)cc1 (stereo not given) |  | active: 5.8 µM |
| CN1C2CCC1CC(NS(=O)(=O)c1cc(Cl)c(Cl)cc1Cl)C2 (stereo not given) |  | inconclusive [inhibitor, single point] |
| COc1ccc(C(=O)N2CCC2(C)C(=O)O)cc1F (stereo not given) | inactive: -26.2% |  |
| CCOC(=O)c1ccccc1NC(=O)N(C)CCc1c(C)nn(CC)c1C |  | active: 20.6 µM |
| Cc1cc(C)cc(Oc2nc3c(c(=O)n(C)c(=O)n3C)n2Cc2ccc(F)cc2)c1 |  | inconclusive [inhibitor, single point] |

| Compound | activity change, negative = growth inhibition | Potency |
| --- | --- | --- |
| CCCc1cc(C(=O)N/N=C/c2ccc(C)o2)c2ccccc2n1 |  | inconclusive [inhibitor, single point] |
| Cc1cccc(NC(=O)C2C(c3ccccc3)C2(Cl)Cl)c1 (stereo not given) |  | inconclusive [inhibitor, single point] |
| Cc1ccc(C(=O)Nc2nc(C(N)C(C)C)cs2)cc1 (stereo not given) |  | inconclusive [inhibitor, single point] |
| CCCc1cc(C(=O)Nc2cccc([N+](=O)[O-])c2)cs1 |  | inconclusive [inhibitor, single point] |
| O=C(CCc1ccc(Oc2cc([N+](=O)[O-])cc([N+](=O)[O-])c2)cc1)N1CCCCC1 |  | inconclusive [inhibitor, partial curve] |
| Cc1nc(N(C)C)c2sc(=S)n(-c3ccccc3)c2n1 |  | inconclusive [inhibitor, single point] |
| CCc1cccc(C)c1NC(=O)CSc1nnc(CC)n2c1cc1occc12 |  | inconclusive [inhibitor, single point] |
| C1CN(CC23CC4CC(CC(C4)C2)C3)CCO1 | inactive: -21.1% |  |
| Cc1cc(C)c2c(CC(=O)Nc3c(C(=O)Nc4ccc(Cl)cc4)oc4ccccc34)coc2c1 |  | inconclusive [inhibitor, single point] |
| Cc1cccc(C(=O)NCC(=O)N2CCN(c3ccc(Cl)cc3)CC2)c1 |  | inconclusive [inhibitor, single point] |
| CC1CC(C)CN(C(=O)COC(=O)c2ccc3c(c2)OCO3)C1 (stereo not given) | inactive: -4.22% |  |
| Cc1ccc(Cc2c(-c3ccc(Cl)cc3)nc3ccc(Cl)cn23)cc1 |  | inconclusive [inhibitor, single point] |
| COc1ccc(CNC(=O)CN2C(=O)c3cccnc3Oc3ccc(C)cc32)cc1 |  | inconclusive [inhibitor, single point] |
| O=C(Cc1ccccc1)Nc1ccc2c(c1)OC1(CCCC1)O2 |  | inconclusive [inhibitor, single point] |
| CCS(=O)(=O)Nc1ccc(C2=NN(C(=S)Nc3ccccc3)C(c3ccco3)C2)cc1 (stereo not given) |  | active: 16.4 µM |
| Cc1cc(OCC(=O)N(Cc2sccc2C)C2CCS(=O)(=O)C2)ccc1Cl (stereo not given) |  | inconclusive [inhibitor, single point] |
| O=S(=O)(NCc1cn2ccsc2n1)c1ccc(Oc2ccccc2)cc1 |  | active: 9.2 µM |
| CC(C)(C)NC(=O)C[C@H]1C[C@H](C(=O)N2CCOCC2)[C@@]2(C)c3[nH]c4cc(-c5ccco5)ccc4c3CCN2C1=O |  | inconclusive [inhibitor, single point] |
| O=C(Nc1nccs1)c1ccc(Cl)c([N+](=O)[O-])c1 | inactive: 5.02% |  |
| CCOC(=O)C1(Cc2ccccc2C(F)(F)F)CCN(C(C)CSC)CC1 (stereo not given) |  | inconclusive [inhibitor, single point] |
| CC(C)COc1ccc(C(=O)CCN2CCCCC2)cc1 |  | active: 5.17 µM |
| O=C(N/N=C/c1sc(N2CCOCC2)nc1-c1ccccc1)c1ccc(O)cc1 |  | inconclusive [inhibitor, single point] |
| O=C(NC(=S)Nc1cccc(Cl)c1)c1cncc(Br)c1 |  | inconclusive [inhibitor, single point] |
| CCSc1ncc(Cl)c(C(=O)Nc2ccc(S(=O)(=O)N(C)c3ccccc3)cc2)n1 |  | active: 11.6 µM |

| Compound | activity change, negative = growth inhibition | Potency |
| --- | --- | --- |
| O=c1[nH]c(N/N=C\c2ccc(F)cc2)nc2ccccc12 |  | inconclusive [inhibitor, single point] |
| O=C(C1=COCCO1)N1CCN(S(=O)(=O)c2cccc(Br)c2)CC1 | inactive: -20.7% |  |
| Nc1c(C(=O)NCCN2CCOCC2)c2nc3ccccc3nc2n1-c1cccc(F)c1 |  | inconclusive [inhibitor, partial curve] |
| COc1cccc(CNc2cccc(C(F)(F)F)c2)c1O |  | inconclusive [inhibitor, partial curve, poor fit] |
| CCCN1CNc2c(c(=O)[nH]c(=S)n2CCc2cccc(C)c2C)C1 |  | inconclusive [inhibitor, single point] |
| CC12CC3CC(C)(C1)CC(C(=O)N1CCN(C(=O)c4ccco4)CC1)(C3)C2 |  | inconclusive [inhibitor, single point] |
| c1ccc(OCCCc2nc(-c3ccccn3)no2)cc1 |  | inconclusive [inhibitor, partial curve] |
| CCCNc1ccc(C(=O)OCC)cc1[N+](=O)[O-] | inactive: -9.47% |  |
| Cc1cc(C)c(/C=N/n2c(C)cc(C)c(C#N)c2=O)c(C)c1 |  | inconclusive [inhibitor, partial curve, poor fit] |
| Cc1cc(C)c2cc(CN(CCN(C)C)C(=O)Nc3ccccc3Cl)c(=O)[nH]c2c1 |  | inconclusive [inhibitor, single point] |
| COc1ccc(S(=O)(=O)N(C)C)cc1NS(=O)(=O)c1ccc(F)c(F)c1F | inactive: -3.22% |  |
| COc1ccc(OC)c(S(=O)(=O)Nc2cc3c4c(c2)CC(=O)N4CCC3)c1 |  | inconclusive [inhibitor, single point] |
| Cc1cccc(NC(=O)COC(=O)c2ccccc2SCC(=O)N2CCCC2)c1 | inactive: -4.84% |  |
| CCN1CCCC1CNC(=O)c1cc(S(=O)(=O)CC)ccc1OC (stereo not given) |  | inactive |
| O=C(NCCCN1CCN(c2ccc(F)cc2)CC1)NC12CC3CC(CC(C3)C1)C2 |  | active: 16.4 µM |
| Cc1ccc(NC(=O)CSc2nc3n[nH]c(C)c3c(=N)n2-c2cccc(C)c2)cc1 |  | active: 5.8 µM |
| CC1CCCCN1C(=O)COC(=O)c1ccc(=O)n(Cc2ccccc2)n1 (stereo not given) | inactive: -21.9% |  |
| CNC(=S)N1N=C(c2ccc(C)cc2)CC1c1cc(OC)ccc1OC (stereo not given) |  | inconclusive [inhibitor, single point] |
| C[C@H](O)[C@H](O)[C@H]1CNc2nc(N)[nH]c(=O)c2N1 |  | inconclusive [inhibitor, single point] |
| O=C(OCC(=O)N(CCc1ccccc1)Cc1ccccc1)c1cccc(S(=O)(=O)N2CCOCC2)c1 |  | inconclusive [inhibitor, single point] |
| CCOC(=O)N1CCc2c(sc3c2c(=O)n(CCc2ccccc2)c(=O)n3Cc2c(F)cccc2Cl)C1 |  | inconclusive [inhibitor, partial curve] |
| CN(CCc1ccccc1)C(=O)c1ccc(NC(=O)Cc2ccc(NC(=O)C3CCCN(C(=O)C4CCCC4)C3)cc2)cc1 (stereo not given) |  | inconclusive [inhibitor, single point] |
